# In the supplement of paper PMC3334620:
# The full ranking holds about 33,000 sequences; the median of “E-score (-0.5 to 0.5)” is about -0.043, and the highest 2% start at about 0.37. The list shows a part of the results.
# Biological target: T1, Upc2 (UniProt Q12151)
# T1 sequence: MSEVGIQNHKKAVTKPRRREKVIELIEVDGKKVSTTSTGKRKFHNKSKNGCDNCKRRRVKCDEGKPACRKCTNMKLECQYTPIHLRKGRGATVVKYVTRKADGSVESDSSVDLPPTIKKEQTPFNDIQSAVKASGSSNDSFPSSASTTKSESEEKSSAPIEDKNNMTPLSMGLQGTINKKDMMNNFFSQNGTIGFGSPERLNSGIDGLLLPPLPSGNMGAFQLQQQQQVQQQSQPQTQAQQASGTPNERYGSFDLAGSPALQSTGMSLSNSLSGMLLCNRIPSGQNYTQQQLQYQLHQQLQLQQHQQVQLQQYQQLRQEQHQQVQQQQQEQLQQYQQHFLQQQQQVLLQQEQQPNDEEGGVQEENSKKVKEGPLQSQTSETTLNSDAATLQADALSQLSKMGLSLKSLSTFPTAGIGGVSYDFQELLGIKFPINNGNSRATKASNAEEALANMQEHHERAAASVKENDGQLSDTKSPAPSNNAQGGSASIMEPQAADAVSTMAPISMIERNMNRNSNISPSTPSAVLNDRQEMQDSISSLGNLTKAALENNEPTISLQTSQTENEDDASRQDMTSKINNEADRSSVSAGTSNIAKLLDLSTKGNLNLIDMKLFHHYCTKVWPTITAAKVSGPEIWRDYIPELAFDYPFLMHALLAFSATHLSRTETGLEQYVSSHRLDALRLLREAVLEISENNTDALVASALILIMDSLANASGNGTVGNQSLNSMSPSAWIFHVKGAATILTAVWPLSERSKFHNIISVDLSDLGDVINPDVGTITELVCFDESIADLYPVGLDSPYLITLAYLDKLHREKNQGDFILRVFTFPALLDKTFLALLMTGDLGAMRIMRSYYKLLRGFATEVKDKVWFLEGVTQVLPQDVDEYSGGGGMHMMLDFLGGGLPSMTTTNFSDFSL
# Assay: PBM E-score (8-mer binding enrichment) (E-score (-0.5 to 0.5)); higher = stronger / more preferred TF binding; most listed sequences are background and not binding sites
# Conditions: protein concentration: 200 nM; construct: GST-full length
# Procedure, shortened: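 PURExpress in vitro transcription/translation supplied GST-tagged yeast transcription factors, either full-length or DNA-binding domain. Applied at about 100-200 nM to universal all-10-mer Agilent arrays double-stranded by primer extension, the bound protein was detected with fluorescent anti-GST. E-scores, modified Wilcoxon-Mann-Whitney statistics, were given by the Universal PBM Analysis Suite to ungapped eight-base words pooled with their reverse complements after masliner normalisation.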
row,Sequence,PBM E-score
1,TGAACTCA,-0.00504
2,GCCCTGAA,0.0191
3,AATCGCTA,0.187
4,CCTAAAGC,-0.082
5,AAACTCCC,0.0565
6,AAGATTAG,-0.0994
7,GCAGGCCC,-0.219
8,CTTCAACC,-0.104
9,ATATGGAC,-0.102
10,CCCATTCC,-0.0714
11,AACTAGAA,-0.0407
12,GTCAGGAC,-0.234
13,CCTAACCC,-0.0258
14,ACGATGCT,0.291
15,ATTTTCGA,0.0272
16,GATGTCCC,0.016
17,GCCTTAGC,-0.155
18,GTGGTCTA,-0.0348
19,AATAGAAC,-0.0513
20,CAGTTGAC,-0.0766
21,CCGCGCCA,-0.253
22,GCGTTGAA,0.175
23,AGCGCCCG,0.144
24,ACACCGTC,0.0479
25,CTAGTAGA,-0.0582

row,Sequence,PBM E-score
1,CACGGCCC,-0.152
2,CTTGGGAA,-0.0858
3,CGTAAATA,0.34
4,ATTTTCCG,0.139
5,ATTCGTTA,0.346
6,AATCTTGA,-0.228
7,CGGACTGC,0.0294
8,AATGCATG,-0.0284
9,ATTGAGCG,0.0842
10,GTCGATCA,-0.0634
11,GGTTTCAA,-0.0768
12,GCCCGGTA,-0.0969
13,ACTTTCTC,-0.0187
14,CGCCCGCA,0.0163
15,CACGCTAA,0.0372
16,AGTGCCTG,-0.0969
17,AGCATGCC,-0.244
18,GGAAGTCA,-0.163
19,GGGGTCAA,0.0907
20,AAACGAGA,0.469
21,AATGCTTA,-0.168
22,GCTGCCCC,-0.0397
23,AGGCATGG,-0.263
24,ACCCATAA,-0.112
25,CAGTTAAC,0.034

row,Sequence,PBM E-score
1,GCCCCCTA,-0.231
2,AGATCGAG,-0.128
3,ATCTCGCG,0.168
4,GAGCACAC,-0.269
5,CTTCCAAG,-0.203
6,GTTGCATA,-0.0318
7,GATCCCCA,-0.0179
8,CGAATCTA,0.0484
9,TGGCAGAA,-0.0458
10,CCCTGTTC,-0.152
11,CAACTGGG,-0.268
12,AACATAAG,0.0537
13,CACTCAGG,-0.181
14,AACCCACC,-0.133
15,GACACCGA,0.00328
16,AGCAGCTA,-0.0413
17,CCAATCGA,-0.0104
18,GATACTTA,-0.128
19,AGTCTCAG,-0.262
20,ATCTACTA,-0.0466
21,AAGCCATG,-0.141
22,ATGTTAAC,0.036
23,ACTGTTTA,0.0701
24,AAACTGAC,-0.0907
25,GATTTTCC,-0.157

row,Sequence,PBM E-score
1,TCGGTCCA,0.0954
2,GTACTGTA,0.146
3,ATGGCGAC,-0.149
4,ACTAATAG,-0.0385
5,ACGAACTA,0.348
6,CTCTTCAA,-0.149
7,CTACGGTA,0.122
8,AAGCTCCG,-0.173
9,AGCGAAGA,0.113
10,AAACACAG,-0.0663
11,CCCGTTAC,0.181
12,TCGTCAAA,0.16
13,CCTGCTTA,0.0328
14,CTGCTGTA,0.11
15,GAGATGTA,0.0591
16,GAAGAAGA,-0.05
17,AAACTGCT,-0.0967
18,CGGGGTGC,-0.0984
19,AAACTGTC,0.00335
20,ATCCCCTC,-0.0985
21,CGTACGAA,0.444
22,CTTGTTAA,-0.196
23,AACTGCCT,0.018
24,AAATATCA,-0.025
25,CCCGATAC,0.211

row,Sequence,PBM E-score
1,GTGCCAAA,-0.00608
2,AAGTTACC,0.0155
3,CCGGCCCA,-0.21
4,CTACGAAC,0.333
5,ATACAGAT,-0.0412
6,ACTAGTCA,-0.134
7,CTCGCATA,0.363
8,AAGGGTTG,0.157
9,CCAATAGG,-0.103
10,ATGGTCTA,-0.159
11,CTATTAGA,-0.0645
12,GAAACGTC,0.0446
13,TCTGAACA,0.0695
14,ATGTTCTC,-0.00459
15,CTACTTTC,-0.0896
16,AGCCGGGA,-0.212
17,ATGTCAGC,-0.101
18,ACGGTTCT,-0.0241
19,CGCGGCGA,-0.148
20,AACGGACG,0.138
21,AGAGTGAT,-0.0959
22,CTTTAACA,-0.0912
23,GTTAATTA,0.23
24,ATTCAAAA,0.0167
25,TGATGCCA,-0.0544

row,Sequence,PBM E-score
1,CGGTTGTA,0.0584
2,CGGCGAAC,-0.0166
3,CCGCATTA,0.0256
4,ATACCCTC,0.00541
5,AGTTATGA,-0.151
6,ATCGAGTA,-0.0003
7,CTTTGTGC,-0.021
8,TCCACTCA,-0.17
9,GTGTGCGA,0.164
10,CGGTCGAC,0.119
11,GTTGAGGA,0.0815
12,AAAATAAA,0.109
13,ACCAAAAG,-0.163
14,AATGCAGC,-0.124
15,GGGGCATA,-0.174
16,CCGGATAG,-0.00515
17,CCAGTAAA,0.0554
18,AGTATTCA,-0.0848
19,TCATCCCA,-0.051
20,GACTCTAA,-0.22
21,ACCGAGTG,0.0119
22,TCATAAGA,0.144
23,CGCGGTAC,0.228
24,TACATCCA,-0.0227
25,AGGCTGCG,-0.191

row,Sequence,PBM E-score
1,CCTGGGCC,-0.169
2,TAATTTCA,0.127
3,TATTGAGA,-0.0242
4,CCTTTAAG,-0.158
5,ACCGGCGG,-0.0546
6,CTAGGTGC,-0.223
7,ACAGAGAA,-0.126
8,CGGCCGAC,-0.0801
9,ACTGGCGG,-0.0357
10,GTAAGTCA,0.203
11,CGACCGGA,0.161
12,GTGGAAGA,-0.0422
13,ACTTCCCA,-0.06
14,GCATCAAC,0.14
15,AAAATTTA,0.0992
16,CCTGTAAG,-0.105
17,CGAAAAAG,0.238
18,ACGCCCGA,-0.0248
19,ACTTCCAA,-0.12
20,ATGCACAT,0.0271
21,ATTTGTCA,0.15
22,ATGTAAGA,0.0356
